In all, about 280,000 compounds went through this assay and about 2,600 (0.93%) were called active. Not shown: some 8% with an inconclusive outcome. Calls follow the shape of the dose curve; as a rule, active = well fitted curve in the direction sought with a large enough effect; inconclusive = small, poorly fitted or top-dose-only effect; inactive = flat fitted curve, though single readings scatter. This is a selection; strong and weak results do not stand in their true shares. More than one record can exist for a structure, and the calls need not agree.
Experiment: Counterscreen qHTS for Inhibitors of Tau Fibril Formation, Fluorescence Polarization; also: nearly all actives have a fitted effect of over 55% in size
Details: tau K18 P301L (four-repeat tau fragment) Alexa594 fluorescence, heparin fibrillization; series mostly up to 57.7 µM; activity change, negative = decrease: at the top concentration
Text: NIH Molecular Libraries Probe Production Network [MLPCN]
NIH Chemical Genomics Center [NCGC]
Assay Provider: Carlo Ballatore, University of Pennsylvania
The microtubule-associated protein tau is an abundant protein in the axons of neurons that stabilizes microtubules. With its ability to modulate microtubule dynamics, tau contributes directly or indirectly, to key structural and regulatory cellular functions. Particularly important is the influence tau exerts on axonal transport, which allows signaling molecules, trophic factors and other essential cellular constituents to travel along the axons. Under pathological conditions, tau becomes sequestered into insoluble aggregates called neurofibrillary tangles. This phenomenon is believed to have pathological consequences by promoting axonal transport deficits that ultimately lead to synaptic dysfunction and neuronal loss. To identify inhibitors of tau aggregation, a heparin-induced tau fibril formation assay was used that employed a recombinantly expressed fragment of tau, K18 (Q242-E372), bearing a P301L mutation (Gustke et al. 1994; Hong et al. 1998). […] Total fluorescence (555 nm excitation and 632 nm emission) was measured to identify fluorescent or absorbent compounds at this wavelength. Such compounds may be artifacts that interfere with the Alexa 594 Tau fluorescence polarization assay.
Gustke, N., B. Trinczek, et al. (1994). "Domains of tau protein and interactions with microtubules." Biochemistry 33(32): 9511-22.
Hong, M., V. Zhukareva, et al. (1998).
Li, W. and V. M. Lee (2006). "Characterization of two VQIXXK motifs for tau fibrillization in vitro." Biochemistry 45(51): 15692-701.
von Bergen, M., S. Barghorn, et al. (2001). "Mutations of tau protein in frontotemporal dementia promote aggregation of paired helical filaments by enhancing local beta-structure." J Biol Chem 276(51): 48165-74.
NCGC Assay Protocol Summary:
For screening, 2 uL/well human K18 P301L (15 uM unlabeled and 0.24 uM Alexa 594-labeled tau final concentrations) in reagent buffer (100 mM sodium acetate pH 7) was dispensed into black solid 1536-well plates (Grenier) using a solenoid-based dispenser. Following transfer of 23 nL compound or DMSO vehicle by a pin tool, 2 uL/well heparin (20 uM final concentration) in reagent buffer was added and the plate centrifuged 15 s at 1000 RPM. Plates were incubated 6 hr at 37 C and then 1 uL/well ThT (30 uM final concentration) was added. After a 1 hr ambient incubation, the plates were read by an Envision (Perkin Elmer) to monitor Alexa 594 FP (555 nm excitation and 632 nm emission).
Keywords: NIH Roadmap, MLPCN, MLI, MLSMR, NCGC, qHTS, tau, tauopathies, Alzheimer's disease, fibril, neurodegeneration, aggregation
% is scaled to controls: 0 for no effect and ±100 for the full control effect; potency is read from the fitted curve at half-maximal effect; tags tell the direction and shape of the fitted curve or compound fluorescence and quenching.

Row | Compound | activity change, negative = decrease | Potency
1 | COCOc1cc(OC)ccc1C(=O)/C=C\c1ccc2c(c1)OCO2 | inactive: -7.33% [at 11.6 µM] | –
2 | Cc1ccn2c(Nc3ccc4c(c3)OCCO4)c(-c3ccc(Cl)s3)nc2c1 | – | active: 7.08 µM [quencher]
3 | COCCOC(=O)C1=C(C)NC(C)=C(C(=O)OC(C)C)[C@@H]1c1cccc([N+](=O)[O-])c1 | inactive: -26.9% | –
4 | CCOC(=O)C1=C(C)NC(C)=C(C(=O)OC)C1c1cccc([N+](=O)[O-])c1 (stereo unspecified) | – | inactive
5 | COc1ccccc1OCCNCC(O)COc1cccc2[nH]c3ccccc3c12 (stereo unspecified) | inactive: -24.7% | –
6 | COC(=O)[C@@]1(Cc2ccc(OC)cc2)[C@H]2c3cc(C(=O)N4CCCC4)n(CCc4c[nH]c5ccc(O)cc45)c3C[C@H]2CN1C(=O)c1ccccc1 | inactive: -26.3% | –
7 | C[C@@H](NC(=O)c1nc[nH]c1C(=O)N[C@@H](Cc1ccccc1)C(=O)OC(C)(C)C)c1ccccc1 | inactive: -25.7% | –
8 | Oc1ccc(Nc2nc3ccccc3nc2Nc2ccc(O)cc2)cc1 | – | active: 7.08 µM [quencher]
9 | Cn1c(-c2ccccc2)c(/C=N/NC(=O)c2ccc(O)cc2)c2ccccc21 | – | active: 20 µM [quencher]
10 | CC[C@]1(O)C[C@@H]2CN(CCc3c([nH]c4ccccc34)[C@@](C(=O)OC)(c3cc4c(cc3OC)N(C)[C@H]3[C@@](O)(C(=O)OC)[C@H](OC(C)=O)[C@]5(CC)C=CCN6CC[C@]43[C@@H]65)C2)C1 | inactive: -25.8% | –
11 | Cc1c(C)c2c(c(C)c1O)CC[C@@](C)(CCC[C@H](C)CCC[C@H](C)CCCC(C)C)O2 | – | inactive
12 | O=C(CSc1ncc(-c2ccccc2)[nH]1)Nc1ccc(Cl)cc1 | – | active: 14.1 µM [quencher]
13 | Fc1ccc(Nc2c(-c3ccco3)nc3ccccn23)cc1 | inactive: -2.18% | –
14 | C[C@@H]1CCC[C@@]2(O[C@H](CCO)C[C@@H](O)[C@@H]2O)O1 | inactive: -2.25% | –
15 | O=C(CN1CCN(c2ccc(Cl)cc2)CC1)Nc1ccc(F)c(F)c1 | inactive: -28.7% | –
16 | CC(C)c1ccc(NC(=O)C2CCCN2S(=O)(=O)c2ccc3nc(-c4ccccc4)[nH]c3c2)cc1 (stereo unspecified) | – | active: 11.2 µM [quencher]

Row | Compound | activity change, negative = decrease | Potency
17 | CCO[C@H]1OC(C(=O)Nc2ccccc2)=C[C@@H](c2coc3ccccc3c2=O)[C@@H]1CCCO | inactive: -4.29% | –
18 | CC1(OC(=O)c2ccc(Cl)nc2)C(=O)C=C2C=C(c3ccc(C#N)cc3)OC=C2C1=O (stereo unspecified) | inactive: -23.2% | –
19 | O=C(Nc1ccc(Cl)cc1)N1CCC(c2ccccc2)C1 (stereo unspecified) | inactive: -27.3% | –
20 | COc1ccc(O[C@H]2C=C[C@@H](c3ccccc3)O[C@@H]2COC(=O)CCC(C)=NO[C@@H]2O[C@H](COC(C)=O)[C@@H](OC(C)=O)[C@H](OC(C)=O)[C@H]2OC(C)=O)cc1 | inactive: -15.2% | –
21 | On1onc2c3cc(-c4ccccc4)nc3ccc21 | – | active: 12.6 µM [quencher]
22 | O=C(NCCc1c[nH]c2ccccc12)C1CCC(Cn2c(=S)[nH]c3ccccc3c2=O)CC1 (stereo unspecified) | – | active: 3.98 µM [quencher]
23 | COc1ccc(/C=C/C(=O)c2cc3c(cc2N)OCO3)cc1 | – | active: 15.8 µM [quencher]
24 | O=C(/C=C/c1ccc(O)cc1)c1c(O)cc(O)cc1O | inactive: 1.81% | –
25 | COc1cccc(Oc2cn[nH]c2-c2ccc(OC)cc2O)c1 | – | active: 14.1 µM [quencher]
26 | O=C(N/N=C/c1c[nH]c2ccccc12)c1sc2ccccc2c1Cl | – | active: 8.91 µM [quencher]
27 | CCOC(=O)c1nnn(CC(=O)NC(=O)Nc2cccc(CC)c2)c1C(=O)OCC | inactive: -28.9% | –
28 | O=C1Nc2ccc(I)cc2/C1=C/c1cc(Br)c(O)c(Br)c1 | inactive: -28.3% | –
29 | CCC1=C(OC(=O)N(CC)CC)N2C(=O)OC(=NCCc3c[nH]c4ccccc34)[C@]2(C)[C@H]2C1=CC[C@H]1C(=O)N(CC(=O)OC)C(=O)[C@H]12 | inactive: -14.8% | –
30 | Cc1cc(C)cc(NC(=O)C(=O)NCCc2c[nH]c3ccccc23)c1 | – | active: 15.8 µM [quencher]
31 | COCCOC(=O)C1=C(C)NC(C)=C(C(=O)OC(C)C)C1c1cccc([N+](=O)[O-])c1 (stereo unspecified) | inactive: -6.5% | –

From PubChem BioAssay AID1463 (National Center for Advancing Translational Sciences (NCATS), 2008)
